Reference: publication PMC10668032
The other results are listed elsewhere or left out. At the low end of the ranking the order means little.

molecular target: SIX1 homeodomain (reference allele) (UniProt Q15475); experiment: universal protein binding microarray; settings: Universal all-10-mer PBM (8x60K, AMADID 030236), 300 nM GST-tagged protein, Alexa Fluor 488 anti-GST; buffer, salt, pH and temperature not stated; high values mean tight binding; most listed sequences are background and not binding sites; double strand, one strand shown

Row | Sequence | binding signal [E-score]
1 | ATAGCCAT | 0.218
2 | ACGTGTAT | 0.256
3 | CATTCCAC | -0.104
4 | AGAGGGTG | 0.0789
5 | ACATAAAC | 0.092
6 | ACCGGCTC | 0.143
7 | CTCTTAGC | -0.0947
8 | GATCCACC | 0.394
9 | AATGCTGA | 0.0327
10 | CGTATCAC | 0.484
11 | AACAGAGA | 0.0474
12 | GCAAGGCA | -0.185
13 | AGACCGAT | 0.179
14 | AACCCGAA | -0.0401
15 | CATCGTTC | -0.147
16 | ACTAGCCG | 0.183
17 | ACGGTTAG | -0.214
18 | CTGACTGC | -0.199
19 | ACTGCGCT | -0.119
20 | CACGACGC | -0.218
21 | AGCCGGCC | -0.142
22 | GTAAGGAC | -0.271

Row | Sequence | binding signal [E-score]
23 | AGAACCTG | 0.0605
24 | CGGCGTGA | -0.0538
25 | GGTTAGAA | 0.153
26 | AGCACCGA | 0.074
27 | CAAGCTAA | -0.179
28 | TCGGTTAA | -0.0168
29 | AAATGTCA | -0.273
30 | CAGAGAGA | 0.00025
31 | CTATACCA | 0.245
32 | TAGCAGGA | -0.043
33 | GACGTTAA | -0.141
34 | CAGTGTCA | 0.249
35 | CGGAGATC | 0.322
36 | GGAGCGTA | 0.0084
37 | GGGTTCTA | 0.000965
38 | CGACTTGC | -0.165
39 | CCCGTTCG | -0.0656
40 | AACTAGGG | -0.237
41 | GATGACCC | 0.269
42 | CTTTTTGA | 0.0152
43 | GTTTGTTA | -0.259
44 | CTGGTAAA | -0.152

Row | Sequence | binding signal [E-score]
45 | CGCGACAG | -0.069
46 | ATAAGACG | 0.149
47 | ACACTCGG | 0.0181
48 | AGTTGTCG | -0.207
49 | CAGATTTA | -0.0391
50 | CAACGTCG | -0.139
51 | CCAGATTC | -0.0421
52 | CGACTGTA | -0.18
53 | AAAGAGCG | -0.244
54 | ACAACCTG | -0.147
55 | GCTTTCAC | -0.0876
56 | CATTTGGA | 0.0558
57 | AGTGTTCC | -0.176
58 | TTACAAAA | -0.337
59 | TAGCTTCA | -0.0619
60 | ACTTCGTG | -0.204
61 | CGCGTGAG | -0.117
62 | GACCGTGA | -0.202
63 | ACCTGATG | -0.0924
64 | GCTGTGTA | 0.0891
65 | AAAATCGT | -0.0968
66 | CATACTAA | -0.119

Row | Sequence | binding signal [E-score]
67 | CAACAGCG | -0.0299
68 | CGTTGATC | 0.152
69 | ACCACGTA | 0.0322
70 | AAGCACCG | -0.228
71 | ACACTCGA | -0.00214
72 | ACGGCCAC | -0.23
73 | GGCCGGAC | -0.193
74 | CAGGCTGA | 0.0399
75 | AATGCACG | -0.168
76 | ATTCAACA | 0.0665
77 | GCCATGTA | 0.183
78 | CTGCAGTA | -0.193
79 | GTATTAAA | 0.246
80 | CCAGTGCC | -0.0955
81 | AGTTCGCC | -0.245
82 | AGTAACAG | -0.126
83 | CGAAGTTC | -0.259
84 | AGACTTGA | -0.126
85 | CCGTGTAA | 0.071
86 | GGAGAGGA | 0.0657
87 | CGTGAAAC | -0.191
88 | AAAACGTA | -0.121

Row | Sequence | binding signal [E-score]
89 | ACGCCCGG | 0.00351
90 | CAAGCCGG | -0.0764
91 | ACCGACGT | -0.0828
92 | CAAAGACG | -0.26
93 | CGGCGCCG | -0.0602
94 | GACATTAA | -0.121
95 | AGAACGTA | -0.106
96 | AACCCCCG | 0.049
97 | ATCTTGAC | 0.129
98 | ATAGCCGC | 0.0754
99 | ACTCCGGA | 0.16
100 | ACGGACGT | -0.112
101 | AACAATGA | -0.0339
102 | AGGTTATA | 0.12
103 | GAGGGAGC | -0.178
104 | ATCACAAA | 0.193
105 | AGGTCGGC | -0.111
106 | CGGTGACG | -0.171
107 | AGACTGTA | -0.157
108 | GAGGGAAC | -0.364
109 | AGTCGAAC | -0.0996
